{"source": "PubChem BioAssay AID463173", "about": "(ICCB-Longwood Screening Facility, Harvard Medical School, 2010)", "note": "The campaign covered roughly 52,000 compounds. About 4,300 (8.3%) were called active. No stated cut-off is given here; in the data, active means survival mostly below about 52% (no sharp cut-off); inactive means mostly above about 56%. The list shows a part of the results."}
{"test_system": "DeltatarO mutant", "experiment": "S. aureus survival, RN4220 and DeltatarO strains – OD600, teichoic acid synthesis inhibitors, primary screen (AID 463173)", "details": "S. aureus RN4220 wild type/DeltatarO growth, OD600, 18 h, active compounds read low, screened at 18.75 µg/mL (by protocol)"}
{"smiles": "Cc1ccc(C(=O)CCNc2ccc(F)c(Cl)c2)o1", "survival": "inactive: 85%"}
{"smiles": "Cc1cccc(CNC(=O)c2cccc(NC(=O)N3CCSc4ncccc43)c2)c1", "survival": "inactive: 83%"}
{"smiles": "CCN1CCN(c2csc3ccc(C)cc3c2=O)CC1", "survival": "inactive: 74%"}
{"smiles": "Cc1ccc(-n2ncc(C(=O)Nc3ccc4c(c3)OCCO4)c2C2CCN(C(=O)OC(C)(C)C)CC2)cc1", "survival": "inactive: 115%"}
{"smiles": "Cc1ccccc1-c1noc(-c2cc3ccccc3oc2=O)n1", "survival": "inactive: 85%"}
{"smiles": "COc1ccc(Br)cc1CNC(=O)CSc1cc(=O)n(C)c2ccccc12", "survival": "inactive: 99%"}
{"smiles": "Cc1ccc(-c2nc(CS(=O)(=O)CC(=O)N3CCN(c4cccc(C)c4C)CC3)c(C)o2)cc1", "survival": "inactive: 116%"}
{"smiles": "CC1CCN(S(=O)(=O)c2ccc3c(c2)oc(=O)n3CC(=O)NC(C)c2ccccc2)CC1", "note": "(centres undefined)", "survival": "inactive: 119%"}
{"smiles": "CCCc1ccc(OC(C)C(=O)Nc2sc3c(c2C(=O)OC)CCCCC3)cc1", "note": "(centres undefined)", "survival": "active: 9%"}
{"smiles": "CC(=O)C1=C(c2ccc(Cl)c(Cl)c2)N(C(C)=O)n2c(nnc2C2CCCCC2)S1", "survival": "inactive: 100%"}
{"smiles": "O=C(CCc1nnc2n(Cc3ccccc3Cl)c(=O)c3ccccc3n12)Nc1ccc(F)cc1", "survival": "inactive: 77%"}
{"smiles": "CCCNC(=O)CCn1nc(-c2ccccc2)c2ccccc2c1=O", "survival": "inactive: 70%"}
{"smiles": "O=C(CSc1nnc(CNC(=O)c2ccccc2F)n1-c1ccccc1)Nc1ccccc1F", "survival": "inactive: 73%"}
{"smiles": "CCC(Cn1nnc2ccccc2c1=O)NC(=O)Nc1ccc(C)cc1", "note": "(centres undefined)", "survival": "inactive: 55%"}
{"smiles": "Cc1ccc(S(=O)(=O)c2cnc(SC(C)C(=O)Nc3ccccc3)[nH]c2=O)cc1", "note": "(centres undefined)", "survival": "inactive: 71%"}
{"smiles": "CCOc1ccc(OCC)c(NC(=O)c2cc(CN3CCOCC3)on2)c1", "survival": "inactive: 84%"}
{"smiles": "COc1ccc2c(c1)c1c(c(=O)n(-c3ccc(C)cc3)c(=O)n1CC(=O)N1CCCC1)n2C", "survival": "inactive: 88%"}
{"smiles": "CC(=O)OC(C(=O)NCc1ccc2c(c1)OCO2)c1ccccc1Cl", "note": "(centres undefined)", "survival": "inactive: 87%"}
{"smiles": "CCOc1ccc(-n2ccn3c(CC(C)CC(=O)O)nnc3c2=O)cc1", "note": "(centres undefined)", "survival": "inactive: 182%"}
{"smiles": "Cc1ccccc1-c1nc2cc(NC(=O)c3cccc(OCCC(C)C)c3)ccc2o1", "survival": "inactive: 48%"}
{"smiles": "CCC12CN3CC(C)(CN(C1)C3c1ccccc1C)C2=O", "note": "(centres undefined)", "survival": "inactive: 76%"}
{"smiles": "CCOC(=O)N1CCC(NC(=O)c2ccc3c(c2)N(Cc2ccccc2)C(=O)c2ccccc2S3=O)CC1", "note": "(centres undefined)", "survival": "inactive: 57%"}
{"smiles": "COc1cc(NC(=O)c2ccc(-c3nc(COc4ccccc4)c(C)o3)cc2)cc(OC)c1", "survival": "inactive: 91%"}
{"smiles": "O=C(c1ccco1)c1cn(CC(=O)N2CCc3ccccc32)c2ccccc12", "survival": "inactive: 79%"}
{"smiles": "CC(C)COC(=O)CNc1n[nH]c(=S)[nH]c1=O", "survival": "inactive: 73%"}
{"smiles": "CCOc1ccc(N(CC)S(=O)(=O)N2CCCC(C(=O)Nc3ccc(OC)c(OC)c3)C2)cc1", "note": "(centres undefined)", "survival": "inactive: 108%"}
{"smiles": "CCOC(=O)C1CCCN(C(=O)c2cccc(NC(=O)c3nsc4ccccc34)c2)C1", "note": "(centres undefined)", "survival": "inactive: 97%"}
{"smiles": "Cc1ccc(NC(=O)CCNS(=O)(=O)c2ccc(Br)s2)cc1", "survival": "active: 50%"}
{"smiles": "COc1cc(C2C(=O)N(C3CCCCCC3)CC(=O)N2CCC2=CCCCC2)ccc1OC(C)C", "note": "(centres undefined)", "survival": "inactive: 85%"}
{"smiles": "O=C(NCCS(=O)(=O)N1CCN(c2ccccc2F)CC1)C(c1ccccc1)c1ccccc1", "survival": "inactive: 95%"}
{"smiles": "O=C(Nc1ccccc1Cl)c1cc(S(=O)(=O)N2CCC3(CC2)OCCO3)ccc1F", "survival": "inactive: 100%"}
{"smiles": "COc1cccc(C(=O)COc2cccc(NC(=O)c3ccco3)c2)c1", "survival": "inactive: 82%"}
{"smiles": "Cc1ccc(-c2nnc(Nc3ccc(O)cc3)c3ccccc23)cc1S(=O)(=O)N1CCN(C)CC1", "survival": "inactive: 90%"}
{"smiles": "O=c1[nH]n(CC2COC3(CCCCC3)O2)c(=O)c2ccccc12", "note": "(centres undefined)", "survival": "inactive: 96%"}
{"smiles": "COc1ccc(Nc2cc(C(=O)NCCc3ccc(C)cc3)c3ccccc3n2)c(OC)c1", "survival": "inactive: 83%"}
{"smiles": "CCOC(=O)N1CCC(NC(=O)c2c(C)nn(-c3ccc(C)cc3)c2-n2cccc2)CC1", "survival": "inactive: 55%"}
{"smiles": "CCCCOc1ccc(C(=O)Nc2nnc3n2CCS3)cc1", "survival": "inactive: 99%"}
{"smiles": "COc1ccc2cc3cc(C(=O)NCc4ccc(C)cc4)oc3nc2c1", "survival": "inactive: 83%"}
{"smiles": "Cc1cc(C)cc(NC(=O)CSc2nc3c(oc4ccccc43)c(=O)n2-c2ccccc2F)c1", "survival": "inactive: 74%"}
{"smiles": "COc1ccc(OC)c(CCNC(=O)c2ccc3c(c2)N(Cc2ccc(C)cc2)CCS3)c1", "survival": "inactive: 79%"}
{"smiles": "COc1ccc(NC(=O)Cn2nnc3sc4c(c3c2=O)CCC(C)C4)c(OC)c1", "note": "(centres undefined)", "survival": "inactive: 133%"}
{"smiles": "Cc1ccc(C)c(Cn2c3ccccc3c3cnn(CC(=O)NCCC4=CCCCC4)c(=O)c32)c1", "survival": "inactive: 81%"}
{"smiles": "COc1ccc(Cl)cc1NC(=O)c1sc(-n2nc(C)c(Cc3ccccc3)c2C)nc1C", "survival": "inactive: 90%"}
{"smiles": "S=C(Nc1ccccc1)N1CCN(c2ccccc2)CC1", "survival": "inactive: 101%"}
{"smiles": "CCCn1c2ccccc2c2cnn(CC(=O)NCCc3ccc(OCC)cc3)c(=O)c21", "survival": "active: -5%"}
{"smiles": "CCOc1ccc(-c2nn(CC(=O)NC3CCCCC3)c3c2cnc2ccc(C)cc23)cc1", "survival": "inactive: 107%"}
{"smiles": "Cc1ccc(C(=O)NCCc2ccc(Cl)cc2)cc1-n1c(C)nc2cccnc21", "survival": "inactive: 94%"}
{"smiles": "COc1cc(-c2noc(-c3ccc(NCc4ccccc4)c([N+](=O)[O-])c3)n2)cc(OC)c1OC", "survival": "inactive: 79%"}
{"smiles": "CCOc1ccc(NC(=O)CCNS(=O)(=O)c2ccc3c(c2)oc(=O)n3C)cc1", "survival": "inactive: 95%"}
{"smiles": "CCc1ccc(CNC(=O)CCC(=O)N2Cc3cccc(OC)c3Oc3ncccc32)cc1", "survival": "inactive: 75%"}
{"smiles": "COCC(C)NCc1cccc(Oc2ccccc2)c1", "note": "(centres undefined)", "survival": "inactive: 86%"}
{"smiles": "CCOc1cc(C(=O)N2CC(=O)Nc3ccc(C)cc3C2c2ccccc2)cc(OCC)c1OCC", "note": "(centres undefined)", "survival": "inactive: 142%"}
{"smiles": "Cc1nnc(SCc2ccccc2)c2cc3sccc3n12", "survival": "inactive: 53%"}
{"smiles": "O=S(=O)(Nc1cccc(-c2ccc(N3CCCC3)nn2)c1)c1ccccc1C(F)(F)F", "survival": "inactive: 61%"}
{"smiles": "O=C(C1CCCCC1)N1CCc2ccccc21", "survival": "inactive: 69%"}
{"smiles": "COc1ccc(N2CCN(c3oc(/C=C/c4ccc(F)cc4)nc3C#N)CC2)cc1", "survival": "inactive: 84%"}
{"smiles": "CCc1ccc(CN(Cc2ccco2)C(=O)c2ccc(OC)cc2)cc1", "survival": "active: 52%"}
{"smiles": "COCCn1c(CNC(=O)c2ccc(C)cc2)nc2cccnc21", "survival": "inactive: 72%"}
{"smiles": "CCN(CC)CCOC(=O)c1ccc(NC(=O)Cn2ncc3c([nH]c4ccc(C)cc43)c2=O)cc1", "survival": "inactive: 86%"}
{"smiles": "Cc1ccccc1CS(=O)(=O)CC1Nc2ccc(C(=O)NCc3ccc(Cl)cc3)cc2NC1=O", "note": "(centres undefined)", "survival": "inactive: 79%"}
{"smiles": "Cc1ccc(-n2nc(C)c(C(=O)NCCCN3CCN(c4ccc(F)cc4)CC3)c2-n2cccc2)cc1", "survival": "inactive: 92%"}
{"smiles": "Cc1ccc(C)c(Cn2c3ccccc3c3cnn(CC(=O)NCCCc4ccccc4)c(=O)c32)c1", "survival": "inactive: 126%"}
{"smiles": "CCOc1ccc(-c2nonc2NC(=O)c2oc3c(C)c(C)ccc3c2C)cc1OCC", "survival": "active: 34%"}
{"smiles": "Cc1cc(C)cc(OC(C)C(=O)Nc2nonc2-c2ccc(Br)cc2)c1", "note": "(centres undefined)", "survival": "active: 14%"}
{"smiles": "Cc1nnc(SCC(=O)n2c3ccccc3c3ccccc32)s1", "survival": "inactive: 89%"}
{"smiles": "O=C(Nc1cccc(C(=O)OCc2cc(=O)n3nc(C4CC4)sc3n2)c1)c1ccccc1", "survival": "active: 6%"}
{"smiles": "Cc1ccccc1NC(=O)CSc1nnc(C)c(=O)[nH]1", "survival": "inactive: 83%"}
{"smiles": "CN(c1ccc(O)cc1)c1nc(-c2cccs2)cs1", "survival": "active: 1%"}
{"smiles": "Nc1c(-c2nc(-c3cccs3)no2)nnn1-c1ccccc1Cl", "survival": "inactive: 66%"}
{"smiles": "Cc1ccc(Cl)cc1N(C)C(=O)Cn1nc(Cc2cccnc2)c2ccccc2c1=O", "survival": "inactive: 80%"}
{"smiles": "CCOc1cccc(CNC(=O)c2ccc(N3CCCC3)c(NC(=O)NCc3ccc(F)cc3)c2)c1", "survival": "inactive: 74%"}
{"smiles": "COc1ccc(C)cc1NC(=O)c1oc2ccc(S(=O)(=O)N3CCCCC3)cc2c1C", "survival": "inactive: 55%"}
{"smiles": "Cc1ccc(SCc2[nH]nc3c2C(c2ccoc2)C(C#N)=C(N)O3)cc1", "note": "(centres undefined)", "survival": "inactive: 103%"}
{"smiles": "Cc1ccc(C)c(N2CCN(S(=O)(=O)c3cc(Br)cc4c3N(C(=O)C3CC3)CC4)CC2)c1", "survival": "inactive: 133%"}
{"smiles": "CCOc1ccc(C2c3[nH]c4ccccc4c3CCN2C(=O)CCc2ccccc2)cc1", "note": "(centres undefined)", "survival": "inactive: 116%"}
{"smiles": "COC(=O)c1nc2n(n1)C(c1cccc(Cl)c1)C(C(=O)Nc1ccccc1OC)=C(C)N2", "note": "(centres undefined)", "survival": "inactive: 123%"}
{"smiles": "O=CNC1CCCc2c1[nH]c1ccccc21", "note": "(centres undefined)", "survival": "inactive: 100%"}
{"smiles": "Cc1c2cnn(-c3ccccc3)c(=O)c2c(C)n1CCCC(=O)Nc1cc(F)ccc1F", "survival": "inactive: 74%"}
{"smiles": "Cc1cccc(C)c1NC(=O)C(NS(=O)(=O)c1ccc2c(c1)CCC(=O)N2)c1ccccc1", "note": "(centres undefined)", "survival": "inactive: 98%"}
{"smiles": "O=C(CSC1=Nc2ccccc2C2=NC(CC(=O)NC3CCCCC3)C(=O)N12)Nc1ccc(F)cc1", "note": "(centres undefined)", "survival": "inactive: 78%"}
{"smiles": "O=C(CSc1nc2ccccc2nc1Cc1ccc(Cl)cc1)N1CCc2ccccc21", "survival": "inactive: 93%"}
{"smiles": "CCc1ccc(CNC(=O)CN2C(=O)c3cccnc3Oc3ccc(Cl)cc32)cc1", "survival": "inactive: 67%"}
{"smiles": "Cc1ccc(-c2nc(C)c(CCNC(=O)c3ccco3)s2)cc1", "survival": "inactive: 82%"}
{"smiles": "COc1ccc(N2CCN(S(=O)(=O)c3ccc4oc(=O)c5ncn(C)c5c4c3)CC2)cc1", "survival": "inactive: 73%"}
{"smiles": "COc1ccc(-c2nc3sc(CCNC(=O)c4cc(OC)c(OC)c(OC)c4)c(C)n3n2)cc1", "survival": "inactive: 83%"}
{"smiles": "Cc1cc(C)cc(-n2ccnc2SCC(=O)Nc2nnc(C)s2)c1", "survival": "inactive: 84%"}
{"smiles": "CCOC(=O)c1sc2ncn(CC(=O)Nc3ccc(N(C)C)cc3)c(=O)c2c1C", "survival": "inactive: 72%"}
{"smiles": "O=C(Nc1nc2ccc(S(=O)(=O)N3CCCC3)cc2s1)c1cccc(F)c1", "survival": "inactive: 75%"}
{"smiles": "CCS(=O)(=O)N1CCc2cc(C(=O)Nc3ccc(OC)c(Cl)c3)ccc21", "survival": "inactive: 47%"}
